# Laboratory results: the supplement of paper PMC8728848
# This is one part of the list.
# Columns and labels:
# Test in all cases: glycan array binding signal (z-score within array); higher = stronger binding
# Conditions in all cases: glycan notation: IUPAC condensed, linker removed
# [1] = target: Gal(b1-3)[Neu5Ac(a2-6)]GalNAc
# How it was run: (§1)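 The binding signal is a Z-score computed within each array. Data were drawn from 3228 arrays in the Consortium for Functional Glycomics database, restricted to those with a known protein sequence. Scores were averaged over arrays of the same protein sequence at different concentrations or buffers, and over linkers, and negative values can be taken as non-binding.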
# [2] = target: Gal(b1-3)[Neu5Ac(a2-6)]GlcNAc(b1-4)Gal(b1-4)Glc
# How it was run: as §1
# [3] = target: Gal(b1-3)[Neu5Ac(a2-6)]GlcNAc(b1-6)Gal(b1-4)Glc
# How it was run: as §1
# [4] = target: Gal(b1-3)[Neu5Ac(b2-6)]GalNAc
# How it was run: as §1
# [5] = target: Gal(b1-4)Gal
# How it was run: as §1
# [6] = target: Gal(b1-4)GalNAc(a1-3)[Fuc(a1-2)]Gal(b1-4)GlcNAc
# How it was run: as §1
# [7] = target: Gal(b1-4)GalNAc(b1-3)[Fuc(a1-2)]Gal(b1-4)GlcNAc
# How it was run: as §1
# [8] = target: Gal(b1-4)Glc
# How it was run: as §1
# [9] = target: Gal(b1-4)Glc6S
# How it was run: as §1
# [10] = target: Gal(b1-4)GlcNAc
# How it was run: as §1
# [11] = target: Gal(b1-4)GlcNAc(a1-6)Gal(b1-4)GlcNAc
# How it was run: as §1
# [12] = target: Gal(b1-4)GlcNAc(b1-2)Man
# How it was run: as §1
# [13] = target: Gal(b1-4)GlcNAc(b1-2)Man(a1-3)Man(b1-4)GlcNAc(b1-4)GlcNAc
# How it was run: as §1
# [14] = target: Gal(b1-4)GlcNAc(b1-2)Man(a1-3)[Gal(b1-4)GlcNAc(b1-2)Man(a1-6)]Man(b1-4)GlcNAc(b1-4)GlcNAc
# How it was run: as §1
# [15] = target: Gal(b1-4)GlcNAc(b1-2)Man(a1-3)[Gal(b1-4)GlcNAc(b1-2)Man(a1-6)]Man(b1-4)GlcNAc(b1-4)[Fuc(a1-6)]GlcNAc
# How it was run: as §1
# [16] = target: Gal(b1-4)GlcNAc(b1-2)Man(a1-3)[Gal(b1-4)GlcNAc(b1-2)Man(a1-6)][Gal(b1-4)GlcNAc(b1-4)]Man(b1-4)GlcNAc(b1-4)[Fuc(a1-6)]GlcNAc
# How it was run: as §1
# [17] = target: Gal(b1-4)GlcNAc(b1-2)Man(a1-3)[Gal(b1-4)GlcNAc(b1-2)Man(a1-6)][GlcNAc(b1-4)]Man(b1-4)GlcNAc(b1-4)[Fuc(a1-6)]GlcNAc
# How it was run: as §1
# [18] = target: Gal(b1-4)GlcNAc(b1-2)Man(a1-3)[Gal(b1-4)GlcNAc(b1-2)][GlcNAc(b1-4)]Man(b1-4)GlcNAc(b1-4)GlcNAc
# How it was run: as §1
# [19] = target: Gal(b1-4)GlcNAc(b1-2)Man(a1-3)[GlcNAc(b1-2)Man(a1-6)]Man(b1-4)GlcNAc(b1-4)GlcNAc
# How it was run: as §1
# [20] = target: Gal(b1-4)GlcNAc(b1-2)Man(a1-3)[GlcNAc(b1-4)][Gal(b1-4)GlcNAc(b1-2)Man(a1-6)]Man(b1-4)GlcNAc(b1-4)GlcNAc
# How it was run: as §1
# [21] = target: Gal(b1-4)GlcNAc(b1-2)Man(a1-3)[Man(a1-6)]Man(b1-4)GlcNAc(b1-4)GlcNAc
# How it was run: as §1
# [22] = target: Gal(b1-4)GlcNAc(b1-2)Man(a1-6)Man(b1-4)GlcNAc(b1-4)GlcNAc
# How it was run: as §1
# [23] = target: Gal(b1-4)GlcNAc(b1-2)Man(a1-6)[GlcNAc(b1-2)Man(a1-3)]Man(b1-4)GlcNAc(b1-4)GlcNAc
# How it was run: as §1
# [24] = target: Gal(b1-4)GlcNAc(b1-2)Man(a1-6)[Man(a1-3)]Man(b1-4)GlcNAc(b1-4)GlcNAc
# How it was run: as §1
# [25] = target: Gal(b1-4)GlcNAc(b1-2)[Gal(b1-4)GlcNAc(b1-4)]Man(a1-3)[Gal(b1-4)GlcNAc(b1-2)Man(a1-6)]Man(b1-4)GlcNAc(b1-4)GlcNAc
# How it was run: as §1
# [26] = target: Gal(b1-4)GlcNAc(b1-2)[Gal(b1-4)GlcNAc(b1-4)]Man(a1-3)[Gal(b1-4)GlcNAc(b1-2)[Gal(b1-4)GlcNAc(b1-6)]Man(a1-6)]Man(b1-4)GlcNAc(b1-4)GlcNAc
# How it was run: as §1
# [27] = target: Gal(b1-4)GlcNAc(b1-2)[Gal(b1-4)GlcNAc(b1-4)]Man(a1-3)[GlcNAc(b1-4)][Gal(b1-4)GlcNAc(b1-2)Man(a1-6)]Man(b1-4)GlcNAc(b1-4)GlcNAc
# How it was run: as §1
# [28] = target: Gal(b1-4)GlcNAc(b1-2)[Gal(b1-4)GlcNAc(b1-4)]Man(a1-3)[GlcNAc(b1-4)][Gal(b1-4)GlcNAc(b1-2)[Gal(b1-4)GlcNAc(b1-6)]Man(a1-6)]Man(b1-4)GlcNAc(b1-4)GlcNAc
# How it was run: as §1
# [29] = target: Gal(b1-4)GlcNAc(b1-2)[Gal(b1-4)GlcNAc(b1-6)]Man(a1-6)[Gal(b1-4)GlcNAc(b1-2)Man(a1-3)]Man(b1-4)GlcNAc(b1-4)GlcNAc
# How it was run: as §1
# [30] = target: Gal(b1-4)GlcNAc(b1-2)[Gal(b1-4)GlcNAc(b1-6)]Man(a1-6)[Gal(b1-4)GlcNAc(b1-2)Man(a1-3)]Man(b1-4)GlcNAc(b1-4)[Fuc(a1-6)]GlcNAc
# How it was run: as §1
# [31] = target: Gal(b1-4)GlcNAc(b1-2)[Gal(b1-4)GlcNAc(b1-6)]Man(a1-6)[GlcNAc(b1-4)][Gal(b1-4)GlcNAc(b1-2)Man(a1-3)]Man(b1-4)GlcNAc(b1-4)GlcNAc
# How it was run: as §1
# [32] = target: Gal(b1-4)GlcNAc(b1-2)[Gal(b1-4)GlcNAc(b1-6)]Man(a1-6)[GlcNAc(b1-4)][Gal(b1-4)GlcNAc(b1-2)[Gal(b1-4)GlcNAc(b1-4)]Man(a1-3)]Man(b1-4)GlcNAc(b1-4)[Fuc(a1-6)]GlcNAc
# How it was run: as §1
# [33] = target: Gal(b1-4)GlcNAc(b1-3)Gal(b1-3)GalNAc
# How it was run: as §1
# [34] = target: Gal(b1-4)GlcNAc(b1-3)Gal(b1-3)GlcNAc
# How it was run: as §1
# [35] = target: Gal(b1-4)GlcNAc(b1-3)Gal(b1-4)Glc
# How it was run: as §1
# [36] = target: Gal(b1-4)GlcNAc(b1-3)Gal(b1-4)GlcNAc
# How it was run: as §1
# [37] = target: Gal(b1-4)GlcNAc(b1-3)Gal(b1-4)GlcNAc(b1-2)Man(a1-3)[Gal(b1-4)GlcNAc(b1-3)Gal(b1-4)GlcNAc(b1-2)Man(a1-6)]Man(b1-4)GlcNAc(b1-4)GlcNAc
# How it was run: as §1
# [38] = target: Gal(b1-4)GlcNAc(b1-3)Gal(b1-4)GlcNAc(b1-2)Man(a1-3)[Gal(b1-4)GlcNAc(b1-3)Gal(b1-4)GlcNAc(b1-2)Man(a1-6)]Man(b1-4)GlcNAc(b1-4)[Fuc(a1-6)]GlcNAc
# How it was run: as §1
# [39] = target: Gal(b1-4)GlcNAc(b1-3)Gal(b1-4)GlcNAc(b1-2)[Gal(b1-4)GlcNAc(b1-3)Gal(b1-4)GlcNAc(b1-6)]Man(a1-6)[Gal(b1-4)GlcNAc(b1-3)Gal(b1-4)GlcNAc(b1-2)Man(a1-3)]Man(b1-4)GlcNAc(b1-4)GlcNAc
# How it was run: as §1
# [40] = target: Gal(b1-4)GlcNAc(b1-3)Gal(b1-4)GlcNAc(b1-2)[Gal(b1-4)GlcNAc(b1-3)Gal(b1-4)GlcNAc(b1-6)]Man(a1-6)[Gal(b1-4)GlcNAc(b1-3)Gal(b1-4)GlcNAc(b1-2)Man(a1-3)]Man(b1-4)GlcNAc(b1-4)[Fuc(a1-6)]GlcNAc
# How it was run: as §1
# [41] = target: Gal(b1-4)GlcNAc(b1-3)Gal(b1-4)GlcNAc(b1-3)Gal(b1-4)GlcNAc
# How it was run: as §1
# [42] = target: Gal(b1-4)GlcNAc(b1-3)Gal(b1-4)GlcNAc(b1-3)Gal(b1-4)GlcNAc(b1-2)Man(a1-3)[Gal(b1-4)GlcNAc(b1-3)Gal(b1-4)GlcNAc(b1-3)Gal(b1-4)GlcNAc(b1-2)Man(a1-6)]Man(b1-4)GlcNAc(b1-4)GlcNAc
# How it was run: as §1
# [43] = target: Gal(b1-4)GlcNAc(b1-3)Gal(b1-4)GlcNAc(b1-3)Gal(b1-4)GlcNAc(b1-2)Man(a1-3)[Gal(b1-4)GlcNAc(b1-3)Gal(b1-4)GlcNAc(b1-3)Gal(b1-4)GlcNAc(b1-2)Man(a1-6)]Man(b1-4)GlcNAc(b1-4)[Fuc(a1-6)]GlcNAc
# How it was run: as §1
# [44] = target: Gal(b1-4)GlcNAc(b1-3)Gal(b1-4)GlcNAc(b1-3)Gal(b1-4)GlcNAc(b1-2)[Gal(b1-4)GlcNAc(b1-3)Gal(b1-4)GlcNAc(b1-3)Gal(b1-4)GlcNAc(b1-6)]Man(a1-6)[Gal(b1-4)GlcNAc(b1-3)Gal(b1-4)GlcNAc(b1-3)Gal(b1-4)GlcNAc(b1-2)Man(a1-3)]Man(b1-4)GlcNAc(b1-4)[Fuc(a1-6)]GlcNAc
# How it was run: as §1
# [45] = target: Gal(b1-4)GlcNAc(b1-3)Gal(b1-4)GlcNAc(b1-3)Gal(b1-4)GlcNAc(b1-3)Gal(b1-4)GlcNAc(b1-2)Man(a1-3)[Gal(b1-4)GlcNAc(b1-3)Gal(b1-4)GlcNAc(b1-3)Gal(b1-4)GlcNAc(b1-3)Gal(b1-4)GlcNAc(b1-2)Man(a1-6)]Man(b1-4)GlcNAc(b1-4)GlcNAc
# How it was run: as §1
binder,measurement,setting,value
"Gal 4 (Mus musculus), P56470 (protein) MAYVPAPGYQPTYNPTLPYYQPIPGGLNVGMSVYIQGVASEHMKRFFVNFVVGQDPGSDVAFHFNPRFDGWDKVVFNTLQGGKWGSEERKRSMPFKKGAAFELVFIVLAEHYKVVVNGNPFYEYGHRLPLQMVTHLQVDGDLQLQSINFIGGQPLRPQGPPMMPPYPGPGHCHQQLNSLPTMEGPPTFNPPVPYFGRLQGGLTARRTIIIKGYVPPTGKSFAINFKVGSSGDIALHINPRMGNGTVVRNSLLNGSWGSEEKKITHNPFGPGQFFDLSIRCGLDRFKVYANGQHLFDFAHRLSAFQRVDTLEIQGDVTLSYVQI",glycan array binding signal (z-score),[1],-0.238
same,glycan array binding signal (z-score),[2],-0.283
same,glycan array binding signal (z-score),[3],-0.176
same,glycan array binding signal (z-score),[4],-0.245
same,glycan array binding signal (z-score),[5],-0.224
same,glycan array binding signal (z-score),[6],4.23
same,glycan array binding signal (z-score),[7],-0.205
same,glycan array binding signal (z-score),[8],-0.217
same,glycan array binding signal (z-score),[9],0.02
same,glycan array binding signal (z-score),[10],-0.233
same,glycan array binding signal (z-score),[11],-0.229
same,glycan array binding signal (z-score),[12],-0.289
same,glycan array binding signal (z-score),[13],-0.198
same,glycan array binding signal (z-score),[14],-0.226
same,glycan array binding signal (z-score),[15],-0.2
same,glycan array binding signal (z-score),[16],-0.291
same,glycan array binding signal (z-score),[17],-0.285
same,glycan array binding signal (z-score),[18],-0.192
same,glycan array binding signal (z-score),[19],-0.199
same,glycan array binding signal (z-score),[20],-0.292
same,glycan array binding signal (z-score),[21],-0.203
same,glycan array binding signal (z-score),[22],-0.231
same,glycan array binding signal (z-score),[23],-0.238
same,glycan array binding signal (z-score),[24],-0.209
same,glycan array binding signal (z-score),[25],-0.227
same,glycan array binding signal (z-score),[26],-0.208
same,glycan array binding signal (z-score),[27],-0.164
same,glycan array binding signal (z-score),[28],-0.256
same,glycan array binding signal (z-score),[29],-0.246
same,glycan array binding signal (z-score),[30],-0.342
same,glycan array binding signal (z-score),[31],-0.203
same,glycan array binding signal (z-score),[32],-0.283
same,glycan array binding signal (z-score),[33],0.135
same,glycan array binding signal (z-score),[34],-0.036
same,glycan array binding signal (z-score),[35],0.673
same,glycan array binding signal (z-score),[36],-0.076
same,glycan array binding signal (z-score),[37],-0.204
same,glycan array binding signal (z-score),[38],-0.214
same,glycan array binding signal (z-score),[39],-0.175
same,glycan array binding signal (z-score),[40],-0.116
same,glycan array binding signal (z-score),[41],-0.171
same,glycan array binding signal (z-score),[42],-0.249
same,glycan array binding signal (z-score),[43],-0.263
same,glycan array binding signal (z-score),[44],-0.024
same,glycan array binding signal (z-score),[45],-0.195
